Test results published in the RNAGym collection of RNA variant scans (doi:10.1101/gad.245936.114).
This sample is rich in variants without activity.

B1: tRNA (parent)
chain: CUCUCGGUAGCCAAGUUGGUUUAAGGCGCAAGACUUUAAUUUAUCACUACGAAAUCUUGAGAUCGGGCGUUCGACUCGCCCCCGGGAGAUUUUUUCCUCGAGCAA

Variants of: B1
Test: nonsense suppression (GFP-seq) (ratio to wild type); higher = more function; SUP4oc tRNA, yeast GFP reporter sort-seq
Summary of the method: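 Sorted GFP/RFP bins of yeast were each Illumina-sequenced with a phred ≥30 cutoff; the cells held a genome-integrated ochre-suppressor tRNA variant from a library with ~3% random mutations, a galactose-driven GFP ochre reporter, and RFP. Culture was in raffinose/galactose medium containing 80 mg/L adenine. Nonsense suppression, termed GFPSEQ, is the median GFP/RFP of the bins weighted by each variant's estimated cell share per bin, relative to the unmutated parent tRNA, for variants reaching ≥100 reads and ≥30 cells.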

Variant | nonsense suppression
G10C G59A | ≤ 0.026
G10C G59A G78C A89U | ≤ 0.026
G10C G61A U70G C77U G88A | ≤ 0.026
G10C G61C U63A | ≤ 0.026
G10C G61U A74U | ≤ 0.026
G10C G61U G69C | ≤ 0.026
G10C G67C C80G A87U | ≤ 0.026
G10C G69C U71G | ≤ 0.026
G10C G78A C79U A87C | ≤ 0.026
G10C G84C | ≤ 0.026
G10C G85U | ≤ 0.026
G10C G86A | ≤ 0.026
G10C G88A | ≤ 0.026
G10C U17A | ≤ 0.026
G10C U17C | ≤ 0.026
G10C U17G A54U C75G C82U | ≤ 0.026
G10C U20A A23G A31U | ≤ 0.026
G10C U20A U63C | ≤ 0.026
G10C U21C A60C | ≤ 0.026
G10C U21G C68G C82A | ≤ 0.026
G10C U22C C34U | ≤ 0.026
G10C U57C C64A C72U | ≤ 0.026
G10C U57C U63C | ≤ 0.026
G10C U57G | ≤ 0.026

Variant | nonsense suppression
G10C U58C G84C | ≤ 0.026
G10C U63A G88C | ≤ 0.026
G10C U63C G86U A87G | ≤ 0.026
G10U | ≤ 0.026
G10U A13G G15U C56G G59A | ≤ 0.026
G10U A14G C83G | ≤ 0.026
G10U A14G G73C | ≤ 0.026
G10U A14G U63C U76C G88U | ≤ 0.026
G10U A14U | 0.19
G10U A23U | ≤ 0.026
G10U A23U C83G | ≤ 0.026
G10U A23U G61A | ≤ 0.026
G10U A24G | ≤ 0.026
G10U A24U A30U G85U | ≤ 0.026
G10U A30C U57C U63C | ≤ 0.026
G10U A30G G69A | ≤ 0.026
G10U A31C | ≤ 0.026
G10U A31G | ≤ 0.026
G10U A31G G67A C79A | ≤ 0.026
G10U A31U C34U U71A | ≤ 0.026
G10U A33G | ≤ 0.026
G10U A54C C81G | ≤ 0.026
G10U A60C | ≤ 0.026
G10U A60G | ≤ 0.026

Variant | nonsense suppression
G10U A74C C75U | ≤ 0.026
G10U A74G G88U | ≤ 0.026
G10U A87G | ≤ 0.026
G10U C11G A23G C83A | ≤ 0.026
G10U C11U | ≤ 0.026
G10U C11U G32U G61A | ≤ 0.026
G10U C11U U55C G67A | ≤ 0.026
G10U C12A | ≤ 0.026
G10U C12G A31U G32U C68G | ≤ 0.026
G10U C12U A14G G15A G59U G67U G85A | ≤ 0.026
G10U C12U U21A A31G U58G | ≤ 0.026
G10U C27G A31G C34U | ≤ 0.026
G10U C27G C79A | ≤ 0.026
G10U C27U A60U G78A | ≤ 0.026
G10U C29A | ≤ 0.026
G10U C29U A54U | ≤ 0.026
G10U C34G A74G | ≤ 0.026
G10U C34U U57C G88U | ≤ 0.026
G10U C56A | ≤ 0.026
G10U C56U A74U | ≤ 0.026
G10U C64U G84A | ≤ 0.026
G10U C68A U76C | ≤ 0.026
G10U C68G U76G G88U | ≤ 0.026
G10U C72A | ≤ 0.026

Variant | nonsense suppression
G10U C72U | ≤ 0.026
G10U C75U A89U | ≤ 0.026
G10U C77G | ≤ 0.026
G10U C82A | ≤ 0.026
G10U C82G | ≤ 0.026
G10U C83U | ≤ 0.026
G10U G15A | ≤ 0.026
G10U G15A G18A U71G A74U | ≤ 0.026
G10U G15C A30U G59C G67A | ≤ 0.026
G10U G15C G59A C80A | ≤ 0.026
G10U G15U G25U G59A | ≤ 0.026
G10U G18C | ≤ 0.026
G10U G18C A24U A33G | ≤ 0.026
G10U G18C C29G G86A | ≤ 0.026
G10U G18U | ≤ 0.026
G10U G18U C56G | ≤ 0.026
G10U G19A | ≤ 0.026
G10U G19A A24G C83U | ≤ 0.026
G10U G19U A74C | ≤ 0.026
G10U G25A U55A | ≤ 0.026
G10U G25U U55A C68A U70G U76A | ≤ 0.026
G10U G28A G73C A87C | ≤ 0.026
G10U G28C U35A C64U | ≤ 0.026
G10U G28U | ≤ 0.026

Variant | nonsense suppression
G10U G28U U35A G59C A60U | ≤ 0.026
G10U G59U G86C | ≤ 0.026
G10U G61C U76G C82U | ≤ 0.026
G10U G78A | ≤ 0.026
G10U G78C | ≤ 0.026
G10U G84A G86U | ≤ 0.026
G10U G86C | ≤ 0.026
G10U U16A G32C A33G G86A | ≤ 0.026
G10U U16C C34A U70G G73U G78A C82G | ≤ 0.026
G10U U16C C34A U70G G73U G78A C82U | ≤ 0.026
G10U U16G A24C | ≤ 0.026
G10U U16G G73A U76C | ≤ 0.026
G10U U16G G88A | ≤ 0.026
G10U U17C | ≤ 0.026
G10U U20C | ≤ 0.026
G10U U20G A62C | ≤ 0.026
G10U U21A | ≤ 0.026
G10U U21C G69A | ≤ 0.026
G10U U22G A24U | ≤ 0.026
G10U U35G | ≤ 0.026
G10U U57A | ≤ 0.026
G10U U57A A60C | ≤ 0.026
G10U U57A G65C | ≤ 0.026
G10U U57C G67C | ≤ 0.026

Variant | nonsense suppression
G10U U57G | ≤ 0.026
G10U U57G C75A | ≤ 0.026
G10U U70C | ≤ 0.026
G10U U70C C82G | ≤ 0.026
G10U U76A | ≤ 0.026
C11A A13C | ≤ 0.026
C11A A13C A14C U57C | ≤ 0.026
C11A A13C G25U | ≤ 0.026
C11A A13C G61A | ≤ 0.026
C11A A13G U58A A74G | ≤ 0.026
C11A A13U A24G A54C C80U | ≤ 0.026
C11A A14C A31U C34U | ≤ 0.026
C11A A14C G18U G88A | ≤ 0.026
C11A A14C U58A G67C U70C | ≤ 0.026
C11A A14G A31C A62U | ≤ 0.026
C11A A14U G66A G73C | ≤ 0.026
C11A A23C | ≤ 0.026
C11A A23U | ≤ 0.026
C11A A24C A60C | ≤ 0.026
C11A A24C G28A | ≤ 0.026
C11A A24U G26C G61U G67C | ≤ 0.026
C11A A30U C56A C75U U76G | ≤ 0.026
C11A A31C A87C | ≤ 0.026
C11A A31C C56A C64U | ≤ 0.026

Variant | nonsense suppression
C11A A31G A60C | ≤ 0.026
C11A A31G C34G | ≤ 0.026
C11A A31U A60C | ≤ 0.026
C11A A31U C64U G78A | ≤ 0.026
C11A A33G G67A G86A | ≤ 0.026
C11A A33G U76A | ≤ 0.026
C11A A33U C79G | ≤ 0.026
C11A A54C G78C | ≤ 0.026
C11A A54U | ≤ 0.026
C11A A62U | ≤ 0.026
C11A C27A | ≤ 0.026
C11A C27U | ≤ 0.026
C11A C29U | ≤ 0.026
C11A C34A C56G C77G | ≤ 0.026
C11A C68A G73U | ≤ 0.026
C11A C77G | ≤ 0.026
C11A C80A | ≤ 0.026
C11A C80G | ≤ 0.026
C11A C81G G88U | ≤ 0.026
C11A C82A | ≤ 0.026
C11A C83U | ≤ 0.026
C11A G15C U17A G18U A62C A89C | ≤ 0.026
C11A G15U | ≤ 0.026
